Source: patent US12459974B2, “Bicyclic peptide ligands specific for Nectin-4” (priority 2018, dated 2025)
At least one peptide structure holds a part that was inferred or is arguable (an end, a ring closure or a residue). *1 amine or outer side, *2 acyl side, *3 side chain or, on linkers, in order; H or OH if unused. Where a SMILES comes first, the peptide text is derived from it. Bridges are numbered along the chain shown (N, C = ends). [ ]: non-standard residue; d: D form. TATA = O=C(CC[*:1])N1CN(C(=O)CC[*:2])CN(C(=O)CC[*:3])C1; 1Nal = N[C@@H](Cc1cccc2ccccc12)C(=O)O; Cya = N[C@@H](CS(=O)(=O)O)C(=O)O; Hyp = O=C(O)[C@@H]1C[C@@H](O)CN1; hArg = N=C(N)NCCCC[C@H](N)C(=O)O

Tests used:
human Nectin-4 [1] = molecular target: T1, human Nectin-4 (Homo sapiens, UniProt Q96NY8); assay: Nectin-4 Biacore SPR binding assay; settings: read-out: Human SPR Kd; peptide ligands (Table 3)
T1 sequence (Q96NY8 32-349): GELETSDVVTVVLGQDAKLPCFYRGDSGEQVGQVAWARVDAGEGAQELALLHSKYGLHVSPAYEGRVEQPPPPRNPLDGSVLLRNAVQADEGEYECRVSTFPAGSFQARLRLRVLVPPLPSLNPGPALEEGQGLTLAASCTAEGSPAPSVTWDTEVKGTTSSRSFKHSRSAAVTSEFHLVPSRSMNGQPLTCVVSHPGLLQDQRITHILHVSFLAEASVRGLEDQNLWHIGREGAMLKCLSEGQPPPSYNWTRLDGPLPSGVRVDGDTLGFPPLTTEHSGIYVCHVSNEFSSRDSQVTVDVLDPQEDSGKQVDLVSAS

human Nectin-4 [2] = molecular target: T2, human Nectin-4 (Homo sapiens, UniProt Q96NY8); assay: Nectin-4 competition binding assay (fluorescence polarisation); settings: competition with fluorescent peptide SEQ ID NO: 217
T2 sequence (Q96NY8 32-510): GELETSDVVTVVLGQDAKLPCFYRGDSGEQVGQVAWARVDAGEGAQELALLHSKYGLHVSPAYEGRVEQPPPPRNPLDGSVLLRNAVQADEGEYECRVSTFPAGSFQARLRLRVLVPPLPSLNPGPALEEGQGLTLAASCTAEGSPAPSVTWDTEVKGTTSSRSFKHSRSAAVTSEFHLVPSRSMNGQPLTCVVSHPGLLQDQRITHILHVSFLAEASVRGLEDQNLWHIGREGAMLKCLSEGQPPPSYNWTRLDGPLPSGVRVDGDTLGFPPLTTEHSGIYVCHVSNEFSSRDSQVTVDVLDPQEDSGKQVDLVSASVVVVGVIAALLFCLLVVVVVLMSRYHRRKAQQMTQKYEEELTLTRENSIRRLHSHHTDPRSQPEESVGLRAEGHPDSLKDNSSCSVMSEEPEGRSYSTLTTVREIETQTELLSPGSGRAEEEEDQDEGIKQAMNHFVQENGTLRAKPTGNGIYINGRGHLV
Outline: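 Serially diluted (1 in 2) peptides, max 5% DMSO, were mixed with human Nectin-4 and a fluorescent tracer peptide; FP read as in the direct binding assay. Ki from fitting mP values to a cubic competition equation using tracer concentration, tracer Kd and Nectin-4 concentration.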

Row | SMILES | Kd (human Nectin-4 [1]) [nM] | Ki (human Nectin-4 [2]) [nM]
1 | CSCC[C@@H]1NC(=O)[C@@H]2CSCCC(=O)N3CN(CN(C3)C(=O)CCSC[C@H](NC(C)=O)C(=O)N3CCC[C@H]3C(=O)N[C@@H](Cc3cccc4ccccc34)C(=O)N[C@H](CCCNC(=N)N)C(=O)N2)C(=O)CCSC[C@@H](C(N)=O)NC(=O)[C@H](Cc2c[nH]c3ccccc23)NC(=O)[C@@H]2C[C@@H](O)CN2C(=O)[C@@H]2CCCN2C(=O)[C@H]([C@@H](C)O)NC(=O)[C@H](CO)NC(=O)[C@H](Cc2c[nH]c3ccccc23)NC(=O)[C@H](CC(N)=O)NC(=O)[C@H](CCCCNC(=N)N)NC1=O [BCY8128, Ac-(SEQ ID NO: 171)] (Ac-CP[1Nal][dR]CM[hArg]NWSTP[Hyp]WC-NH2; linker 1-5-15 via TATA; C-terminus assumed) | 1.06 | 2.2
2 | CSCC[C@@H]1NC(=O)[C@@H]2CSCCC(=O)N3CN(CN(C3)C(=O)CCSC[C@H](NC(C)=O)C(=O)N3CCC[C@H]3C(=O)N[C@@H](Cc3cccc4ccccc34)C(=O)N[C@H](CCCNC(=N)N)C(=O)N2)C(=O)CCSC[C@@H](C(N)=O)NC(=O)[C@H](Cc2c[nH]c3ccccc23)NC(=O)[C@@H]2C[C@@H](O)CN2C(=O)[C@@H]2CCCN2C(=O)[C@H]([C@@H](C)O)NC(=O)[C@H](CO)NC(=O)[C@H](Cc2c[nH]c3ccccc23)NC(=O)[C@H](Cc2c[nH]cn2)NC(=O)[C@H](CCCCNC(=N)N)NC1=O [BCY8129, Ac-(SEQ ID NO: 172)] (Ac-CP[1Nal][dR]CM[hArg]HWSTP[Hyp]WC-NH2; linker 1-5-15 via TATA; C-terminus assumed) | 0.87 | 3.1
3 | CSCC[C@@H]1NC(=O)[C@@H]2CSCCC(=O)N3CN(CN(C3)C(=O)CCSC[C@H](NC(C)=O)C(=O)N3CCC[C@H]3C(=O)N[C@@H](Cc3cccc4ccccc34)C(=O)N[C@H](CC(=O)O)C(=O)N2)C(=O)CCSC[C@@H](C(N)=O)NC(=O)[C@H](Cc2c[nH]c3ccccc23)NC(=O)[C@@H]2C[C@@H](O)CN2C(=O)[C@@H]2CCCN2C(=O)[C@H]([C@@H](C)O)NC(=O)[C@H](CO)NC(=O)[C@H](Cc2c[nH]c3ccccc23)NC(=O)[C@H](CS(=O)(=O)O)NC(=O)[C@H](CCCCNC(=N)N)NC1=O [BCY8161, Ac-(SEQ ID NO: 177)] (Ac-CP[1Nal][dD]CM[hArg][Cya]WSTP[Hyp]WC-NH2; linker 1-5-15 via TATA; C-terminus assumed) | 0.94 | 4
4 | CSCC[C@@H]1NC(=O)[C@@H]2CSCCC(=O)N3CN(CN(C3)C(=O)CCSC[C@H](NC(C)=O)C(=O)N3CCC[C@H]3C(=O)N[C@@H](Cc3cccc4ccccc34)C(=O)N[C@H](CC(=O)O)C(=O)N2)C(=O)CCSC[C@@H](C(N)=O)NC(=O)[C@H](Cc2c[nH]c3ccccc23)NC(=O)[C@@H]2C[C@@H](O)CN2C(=O)[C@@H]2CCCN2C(=O)[C@H]([C@@H](C)O)NC(=O)[C@H](CO)NC(=O)[C@H](Cc2c[nH]c3ccccc23)NC(=O)[C@H](CC(=O)O)NC(=O)[C@H](CS(=O)(=O)O)NC1=O [BCY8162, Ac-(SEQ ID NO: 178)] | 4.3 | 3
5 | CSCC[C@@H]1NC(=O)[C@@H]2CSCCC(=O)N3CN(CN(C3)C(=O)CCSC[C@H](NC(C)=O)C(=O)N3CCC[C@H]3C(=O)N[C@@H](Cc3cccc4ccccc34)C(=O)N[C@H](CS(=O)(=O)O)C(=O)N2)C(=O)CCSC[C@@H](C(N)=O)NC(=O)[C@H](Cc2c[nH]c3ccccc23)NC(=O)[C@@H]2C[C@@H](O)CN2C(=O)[C@@H]2CCCN2C(=O)[C@H]([C@@H](C)O)NC(=O)[C@H](CO)NC(=O)[C@H](Cc2c[nH]c3ccccc23)NC(=O)[C@H](CC(=O)O)NC(=O)[C@H](CCCCNC(=N)N)NC1=O [BCY8163, Ac-(SEQ ID NO: 179)] | 0.61 | 3
6 | CSCC[C@@H]1NC(=O)[C@@H]2CSCCC(=O)N3CN(CN(C3)C(=O)CCSC[C@H](NC(C)=O)C(=O)N3CCC[C@H]3C(=O)N[C@@H](Cc3cccc4ccccc34)C(=O)N[C@H](CC(=O)O)C(=O)N2)C(=O)CCSC[C@@H](C(N)=O)NC(=O)[C@H](Cc2c[nH]c3ccccc23)NC(=O)[C@@H]2C[C@@H](O)CN2C(=O)[C@@H]2CCCN2C(=O)[C@H]([C@@H](C)O)NC(=O)[C@H](CO)NC(=O)[C@H](Cc2c[nH]c3ccccc23)NC(=O)[C@H](CC(=O)O)NC(=O)[C@@H]2CCCN2C1=O [BCY8182, Ac-(SEQ ID NO: 187)] (Ac-CP[1Nal][dD]CMPDWSTP[Hyp]WC-NH2; linker 1-5-15 via TATA; C-terminus assumed) | 0.96 | 2
7 | CSCC[C@@H]1NC(=O)[C@@H]2CSCCC(=O)N3CN(CN(C3)C(=O)CCSC[C@H](NC(C)=O)C(=O)N3CCC[C@H]3C(=O)N[C@@H](Cc3cccc4ccccc34)C(=O)N[C@H](CC(=O)O)C(=O)N2)C(=O)CCSC[C@@H](C(N)=O)NC(=O)[C@H](Cc2c[nH]c3ccccc23)NC(=O)[C@@H]2C[C@@H](O)CN2C(=O)[C@@H]2CCCN2C(=O)[C@H]([C@@H](C)O)NC(=O)[C@H](CO)NC(=O)[C@H](Cc2c[nH]c3ccccc23)NC(=O)[C@H](CC(=O)O)NC(=O)[C@@H]2C[C@@H](O)CN2C1=O [BCY8183, Ac-(SEQ ID NO: 188)] | 0.56 | 2
8 | CSCC[C@@H]1NC(=O)[C@@H]2CSCCC(=O)N3CN(CN(C3)C(=O)CCSC[C@H](NC(C)=O)C(=O)N3CCC[C@H]3C(=O)N[C@@H](Cc3cccc4ccccc34)C(=O)N[C@H](CCCNC(=N)N)C(=O)N2)C(=O)CCSC[C@@H](C(N)=O)NC(=O)[C@H](Cc2c[nH]c3ccccc23)NC(=O)[C@@H]2C[C@@H](O)CN2C(=O)[C@@H]2CCCN2C(=O)[C@H]([C@@H](C)O)NC(=O)[C@H](CO)NC(=O)[C@H](Cc2c[nH]c3ccccc23)NC(=O)[C@H](CC(=O)O)NC(=O)[C@H](CCNC(=N)N)NC1=O [BCY8192, Ac-(SEQ ID NO: 196)] | 1.81 | 5
9 | CSCC[C@@H]1NC(=O)[C@@H]2CSCCC(=O)N3CN(CN(C3)C(=O)CCSC[C@H](NC(C)=O)C(=O)N3CCC[C@H]3C(=O)N[C@@H](Cc3cccc4ccccc34)C(=O)N[C@H](CCCNC(=N)N)C(=O)N2)C(=O)CCSC[C@@H](C(N)=O)NC(=O)[C@H](Cc2c[nH]c3ccccc23)NC(=O)[C@@H]2C[C@@H](O)CN2C(=O)[C@@H]2CCCN2C(=O)[C@H]([C@@H](C)O)NC(=O)[C@H](CO)NC(=O)[C@H](Cc2c[nH]c3ccccc23)NC(=O)[C@H](CC(=O)O)NC(=O)[C@@H]2CCCN2C1=O [BCY8193, Ac-(SEQ ID NO: 197)] (Ac-CP[1Nal][dR]CMPDWSTP[Hyp]WC-NH2; linker 1-5-15 via TATA; C-terminus assumed) | 1.3 | 3
10 | CSCC[C@@H]1NC(=O)[C@@H]2CSCCC(=O)N3CN(CN(C3)C(=O)CCSC[C@H](NC(C)=O)C(=O)N3CCC[C@H]3C(=O)N[C@@H](Cc3cccc4ccccc34)C(=O)N[C@H](CCCNC(=N)N)C(=O)N2)C(=O)CCSC[C@@H](C(N)=O)NC(=O)[C@H](Cc2c[nH]c3ccccc23)NC(=O)[C@@H]2C[C@@H](O)CN2C(=O)[C@@H]2CCCN2C(=O)[C@H]([C@@H](C)O)NC(=O)[C@H](CO)NC(=O)[C@H](Cc2c[nH]c3ccccc23)NC(=O)[C@H](CC(=O)O)NC(=O)[C@@H]2C[C@@H](O)CN2C1=O [BCY8194, Ac-(SEQ ID NO: 198)] | 1.9 | 3.5
11 | CC[C@H](C)[C@@H]1NC(=O)[C@@H]2CCCN2C(=O)[C@H]([C@@H](C)O)NC(=O)[C@H](CO)NC(=O)[C@H](Cc2c[nH]c3ccccc23)NC(=O)[C@H](CC(=O)O)NC(=O)[C@H](CCCCNC(=N)N)NC(=O)[C@H](CC(C)C)NC(=O)[C@@H]2CSCCC(=O)N3CN(CN(C3)C(=O)CCSC[C@H](NC(C)=O)C(=O)N3CCC[C@H]3C(=O)N[C@@H](Cc3cccc4ccccc34)C(=O)N[C@H](CC(=O)O)C(=O)N2)C(=O)CCSC[C@@H](C(N)=O)NC(=O)[C@H](Cc2c[nH]c3ccccc23)NC1=O [BCY8211, Ac-(SEQ ID NO: 199)] (Ac-CP[1Nal][dD]CL[hArg]DWSTPIWC-NH2; linker 1-5-15 via TATA; C-terminus assumed) | 7.32 | 4.5
12 | CC(=O)N[C@H]1CSCCC(=O)N2CN3CN(C2)C(=O)CCSC[C@H](NC(=O)[C@@H](CC(=O)O)NC(=O)[C@H](Cc2cccc4ccccc24)NC(=O)[C@@H]2CCCN2C1=O)C(=O)N[C@@H](CC(C)C)C(=O)N[C@@H](CCCCNC(=N)N)C(=O)N[C@@H](CC(=O)O)C(=O)N[C@@H](Cc1c[nH]c2ccccc12)C(=O)N[C@@H](CO)C(=O)N[C@@H]([C@@H](C)O)C(=O)N1CCC[C@H]1C(=O)N1C[C@H](O)C[C@H]1C(=O)N[C@@H](Cc1c[nH]c2ccccc12)C(=O)N[C@H](C(N)=O)CSCCC3=O [BCY8212, Ac-(SEQ ID NO: 200)] (Ac-CP[1Nal][dD]CL[hArg]DWSTP[Hyp]WC-NH2; linker 1-5-15 via TATA) | 2.42 | 3
